# Experimental data from PMC12820563.
# This is one part of the list. The list includes weakly bound sequences.
# Target: T1, MBP-FoxP3dN (UniProt Q99JB6)
# T1 sequence: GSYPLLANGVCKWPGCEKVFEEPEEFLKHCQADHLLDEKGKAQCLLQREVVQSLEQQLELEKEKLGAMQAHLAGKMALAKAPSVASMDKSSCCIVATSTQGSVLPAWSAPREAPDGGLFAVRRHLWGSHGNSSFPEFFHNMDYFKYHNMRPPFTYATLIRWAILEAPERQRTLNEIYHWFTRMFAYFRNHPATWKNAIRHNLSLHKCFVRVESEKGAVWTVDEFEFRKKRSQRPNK
# Test: PD-seq (MBP pull-down with sequencing)
# Conditions: 20 mM Tris-HCl pH 7.5, 100 mM NaCl, 1.5 mM MgCl2, 0.4 uM protein, 0.1 uM dsDNA library, 30 min, room temperature, amylose pull-down; high values mean tight binding; double strand, one strand shown
row,Sequence,binding signal (RPM ratio (pull-down/input))
1,GATGATTGTTCTCCCAGCTGATGAATTTTCTTACTCGAGTAAACAAATTTTCCTAATCTTTCTGTTCAAGCGCCATCTAC,0.302
2,GATGATTGTTCTCCCAGCTGATGAATTGCCAACGTCGAGTAAACAAATTTTCCTAATCTTTCTGTTCAAGCGCCATCTAC,0.499
3,GATGATTGTTCTCCCAGCTGATGAATTTCATCCTTCGAGTAAACAAATTTTCCTAATCTTTCTGTTCAAGCGCCATCTAC,0.335
4,GATGATTGTTCTCCCAGCTGATGAATTAGCGCAATCGAGTAAACAAATTTTCCTAATCTTTCTGTTCAAGCGCCATCTAC,3.66
5,GATGATTGTTCTCCCAGCTGATGAATTCGAACACTCGAGTAAACAAATTTTCCTAATCTTTCTGTTCAAGCGCCATCTAC,0.457
6,GATGATTGTTCTCCCAGCTGATGAATTCTCCCTGTCGAGTAAACAAATTTTCCTAATCTTTCTGTTCAAGCGCCATCTAC,0.215
7,GATGATTGTTCTCCCAGCTGATGAATTTACATCGTCGAGTAAACAAATTTTCCTAATCTTTCTGTTCAAGCGCCATCTAC,0.725
8,GATGATTGTTCTCCCAGCTGATGAATTTTCCCGCTCGAGTAAACAAATTTTCCTAATCTTTCTGTTCAAGCGCCATCTAC,0.165
9,GATGATTGTTCTCCCAGCTGATGAATTTGACGTTTCGAGTAAACAAATTTTCCTAATCTTTCTGTTCAAGCGCCATCTAC,1.43
10,GATGATTGTTCTCCCAGCTGATGAATTCGATAAGTCGAGTAAACAAATTTTCCTAATCTTTCTGTTCAAGCGCCATCTAC,0.283
11,GATGATTGTTCTCCCAGCTGATGAATTACACCCTTCGAGTAAACAAATTTTCCTAATCTTTCTGTTCAAGCGCCATCTAC,0.428
12,GATGATTGTTCTCCCAGCTGATGAATTCAAACAATCGAGTAAACAAATTTTCCTAATCTTTCTGTTCAAGCGCCATCTAC,1.64
13,GATGATTGTTCTCCCAGCTGATGAATTATATTAATCGAGTAAACAAATTTTCCTAATCTTTCTGTTCAAGCGCCATCTAC,0.595
14,GATGATTGTTCTCCCAGCTGATGAATTAGGTAGTTCGAGTAAACAAATTTTCCTAATCTTTCTGTTCAAGCGCCATCTAC,0.919
15,GATGATTGTTCTCCCAGCTGATGAATTTGTTTTTTCGAGTAAACAAATTTTCCTAATCTTTCTGTTCAAGCGCCATCTAC,6.93
16,GATGATTGTTCTCCCAGCTGATGAATTTCCAAGCTCGAGTAAACAAATTTTCCTAATCTTTCTGTTCAAGCGCCATCTAC,0.233

row,Sequence,binding signal (RPM ratio (pull-down/input))
1,GATGATTGTTCTCCCAGCTGATGAATTAGATCGATCGAGTAAACAAATTTTCCTAATCTTTCTGTTCAAGCGCCATCTAC,0.257
2,GATGATTGTTCTCCCAGCTGATGAATTCGTTTCTTCGAGTAAACAAATTTTCCTAATCTTTCTGTTCAAGCGCCATCTAC,1.72
3,GATGATTGTTCTCCCAGCTGATGAATTAAAGGTCTCGAGTAAACAAATTTTCCTAATCTTTCTGTTCAAGCGCCATCTAC,0.359
4,GATGATTGTTCTCCCAGCTGATGAATTTATTGGATCGAGTAAACAAATTTTCCTAATCTTTCTGTTCAAGCGCCATCTAC,0.963
5,GATGATTGTTCTCCCAGCTGATGAATTGGTTTCTTCGAGTAAACAAATTTTCCTAATCTTTCTGTTCAAGCGCCATCTAC,1.39
6,GATGATTGTTCTCCCAGCTGATGAATTAGTACAATCGAGTAAACAAATTTTCCTAATCTTTCTGTTCAAGCGCCATCTAC,0.831
7,GATGATTGTTCTCCCAGCTGATGAATTTGTCTCGTCGAGTAAACAAATTTTCCTAATCTTTCTGTTCAAGCGCCATCTAC,2.57
8,GATGATTGTTCTCCCAGCTGATGAATTAGGTTCATCGAGTAAACAAATTTTCCTAATCTTTCTGTTCAAGCGCCATCTAC,0.598
9,GATGATTGTTCTCCCAGCTGATGAATTCCCCATATCGAGTAAACAAATTTTCCTAATCTTTCTGTTCAAGCGCCATCTAC,0.264
10,GATGATTGTTCTCCCAGCTGATGAATTACCAATGTCGAGTAAACAAATTTTCCTAATCTTTCTGTTCAAGCGCCATCTAC,0.364
11,GATGATTGTTCTCCCAGCTGATGAATTGGGCTACTCGAGTAAACAAATTTTCCTAATCTTTCTGTTCAAGCGCCATCTAC,1.21
12,GATGATTGTTCTCCCAGCTGATGAATTCCGAAATTCGAGTAAACAAATTTTCCTAATCTTTCTGTTCAAGCGCCATCTAC,0.558
13,GATGATTGTTCTCCCAGCTGATGAATTCTCTAGATCGAGTAAACAAATTTTCCTAATCTTTCTGTTCAAGCGCCATCTAC,0.18
14,GATGATTGTTCTCCCAGCTGATGAATTACTCGTGTCGAGTAAACAAATTTTCCTAATCTTTCTGTTCAAGCGCCATCTAC,0.429
15,GATGATTGTTCTCCCAGCTGATGAATTTTACCGTTCGAGTAAACAAATTTTCCTAATCTTTCTGTTCAAGCGCCATCTAC,0.311
